# From the supplement of paper PMC7826260
# The list shows a part of the results. Cleavage of a single-stranded DNA pool by Rep nickase domains was read by sequencing (3 µM enzyme, 1 h, 37 °C); shown is the middle of each 90-letter strand. The score is log2 (uncut reads / reads without enzyme); the lower, the more was cut; hits are not called. Reads are scaled to the total; values above 0 arise when much of the pool is cut.
# Test system: T1, Rep nickase domain of tomato golden mosaic virus
# T1 sequence (protein, residues 1-124, tag omitted): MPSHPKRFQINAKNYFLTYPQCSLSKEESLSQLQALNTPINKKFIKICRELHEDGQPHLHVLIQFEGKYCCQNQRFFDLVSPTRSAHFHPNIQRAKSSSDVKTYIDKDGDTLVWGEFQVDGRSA
# Assay: uncleaved DNA left, log2 of reads against the no-enzyme library (log2 ratio); higher = less cleavage (more negative = more Rep cleavage of the k-mer); sequences stand for … in CTCGTCCG…ACCGGAGA
# Description: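 A pool of 90-nt single-stranded DNAs with seven random bases just before the constant AC of the nick site (name = the seven bases) was cut by 3 µM recombinant His6-SUMO-tagged Rep nickase domain (300 nM DNA, 50 mM HEPES pH 8.0, 50 mM NaCl, 1 mM MnCl2, 1 h, 37 °C, three replicates). Uncut DNA was amplified and sequenced.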
row,Sequence,uncleaved DNA left (log2)
1,TACTCAT,-0.0898
2,TTGGATG,-0.152
3,CAACGGG,0.149
4,CTTGTAA,0.0586
5,CTGAACC,-0.0408
6,AATCTAT,0.165
7,ACCCAAT,0.0323
8,TCCGGTC,-0.105
9,AATTCGT,-0.127
10,ATCGAGC,0.0177
11,AGACACA,-0.082
12,ACTAGCC,0.0598
13,AAACCGC,-0.0941
14,ATGGTTG,0.106
15,TTTTGGT,-0.0316
16,AATCATG,0.035
17,AGCCGCG,0.14
18,CACACTT,-0.213
19,CCATGCC,-0.106
20,ATTCTGA,-0.0263

row,Sequence,uncleaved DNA left (log2)
1,TCACTTC,-0.0746
2,CACAGCA,0.0914
3,TTATGCC,-0.133
4,TTGTGAA,0.0215
5,CGAAAAA,-0.00669
6,GGATAGT,0.0599
7,GCTTTTC,-0.00674
8,GGTAGCT,-0.0984
9,TCAGTTT,-0.0852
10,TATAACG,-0.0675
11,GGCCCGA,-0.0187
12,GCGACCC,-0.0746
13,CTTCACT,-0.111
14,TCTACCG,-0.104
15,CAAAAGG,0.0775
16,TGTCGGC,0.0116
17,TAGCTAG,0.0196
18,ACATGAC,-0.0137
19,AAGCTCG,0.134
20,TGCTAAG,0.0887
